Measured values published in the RNAGym collection of RNA variant scans (doi:10.7554/elife.90254).
The source gives no read counts; variants with many changes may rest on few reads.

B1: LINE1-mini (parent)
chain: GGCAGAGCUCAACACAGCGUGGCAAAGUGGCUGUGGCUAGACUGCC

Variants of: B1
Assay: self-cleavage, relative activity (ratio to wild type); higher = more cleavage; in vitro, sequencing; the parent is a self-cleaving ribozyme

Variant | self-cleavage
GGCAAAGAUCAACAUAGCGUGGCAAAGUGGCUGUGGCUAGACUGCC [G5A C8A C15U] | 1.25
GGCAAAGUUCAACACAGCGUGGGAAAGUGGCUGUCGCUAGACUGCC [G5A C8U C23G G35C] | 0.08
GGCAAAGAUAAACACAGCGUGGCAAAGUGGCUGUGGCUAGACUGCC [G5A C8A C10A] | 0.02
GGCAAAGCUAAACACAGCCUGGCAAAGUGGCUGUCGCUAGACUGCC [G5A C10A G19C G35C] | 0.02
GGCAAAGCUAAAUACACCGUGGCAAAGAGACAGUGGCUAGACUGCC [G5A C10A C13U G17C U28A G30A U32A] | 0.01
GGCAAAGCUCAACACAGCGUGGCCAAGUGGCUGUGGCUAGACUGAC [G5A A24C C45A] | 0.05
GGCAAAGCUCAACACGGCGUGGCAAAGUGGCUAUGGCUAGACUGCC [G5A A16G G33A] | 0.02
GGCAAAGCUCAACACCGCGUUGCACAGUGGCUGUGGCUAGACUGCC [G5A A16C G21U A25C] | 0.06
GGCAAAGGGCAACACGGCGUGGCAAAGAGGCUGUGGCUAGACUGCC [G5A C8G U9G A16G U28A] | 0.12
GGCAAAGCUCAACGCAACGUAGCAAAGUGGCUAUGGCCAGACUGUC [G5A A14G G17A G21A G33A U38C C45U] | 0.07
GGCAAAGCUCAACUCAGCGUGGCAAAGUGGACGUUGCUAGACUGCC [G5A A14U C31A U32C G35U] | 0.05
GGCAAAGCUCAACACUGCGUGGGAAAGUGGCUGUGCCUAGACUGCC [G5A A16U C23G G36C] | 0.04
GGCAAAGCUCAUCACAGCGCGGCAAAGUGGCUGUGGCUAGACUGCC [G5A A12U U20C] | 0.03
GGCAAAGCUCAACACAGCGUGGCAUGGUAGCUGUGGCUAGAAUGCC [G5A A25U A26G G29A C42A] | 0.02
GGCAAAGCUCAACACAGCGUGGCAAGGUGGAUGUGGCUAGGCUGCC [G5A A26G C31A A41G] | 0.02
GGCAAAGCUAAACACAGCGUGGCAAAGUUGCUGUGGCUAGAAUGCC [G5A C10A G29U C42A] | 0.02
GGCAAAGCUAAACACAGCGUGUCUAAGUGGCUGUGGCUAGACUGUU [G5A C10A G22U A24U C45U C46U] | 0.04
GGCAAAGAACAACACAGCGUGGCAAAGUGGCUGUGGCUAGACCGCC [G5A C8A U9A U43C] | 1.93
GGCAAAGUUCAACACAGCGUGGCAAAGUGGCUGUGGCUAGAUUGCC [G5A C8U C42U] | 0.41

Variant | self-cleavage
GGCAAAGCUCAACGCAGCGGGGCAAAGUGGCUUUGGCUAGACUGCC [G5A A14G U20G G33U] | 0.03
GGCAAAGCUGAACACAGCGUGGACAAGAGGCUGGGGCUAGUCUGCC [G5A C10G C23A A24C U28A U34G A41U] | 0.02
GGCAAAGCUGUACACCGCGUGGCAACGUGGCUGUGGCUAAACUGCC [G5A C10G A11U A16C A26C G40A] | 0.02
GGCAAAGCUGAACACAGCGUGGUAAAGUGGCUGUGGCUUGACUGCC [G5A C10G C23U A39U] | 0.03
GGCAAAGCUCAUCACAGCGUGGCAAAGUGGCUGUGGCUAUACUGCC [G5A A12U G40U] | 0.03
GGCAAAGCUCAACACGGCUUGGCAAAUUGUCUGUGGCUAGACUACC [G5A A16G G19U G27U G30U G44A] | 0.02
GGCAAAGCUCAACACAGCGUGGCAAAGUGGCUGUGGCUGGACUGCA [G5A A39G C46A] | 0.07
GGCAAAGCUCAACGCACCGUGGCAAAGUGGUUGUGGCUAGACUGCC [G5A A14G G17C C31U] | 0.02
GGCAAAGAUCAACACAUCGCAGCAAAGUGGAUGUGGCUAGACUGCC [G5A C8A G17U U20C G21A C31A] | 0.14
GGCAAAGAUCAGUACAACGUGGCCAAGUGGCUGUGGCUAGACUGCG [G5A C8A A12G C13U G17A A24C C46G] | 0.15
GGCAAAGUUCAACACAGCGUGGCAAAAUGGCUGUGGCUAGAAUGCC [G5A C8U G27A C42A] | 0.04
GGCAAAGCUCAACACGGCGUGGCAAAGUGGCUGUGGCUCGACUGCC [G5A A16G A39C] | 0.08
GGCAAAGGUCAACACAGCGUGGCAAAGUGGCUGUGGCAAGACUGCC [G5A C8G U38A] | 0.22
GGCAAAGCUCAACACAGCGUGGCAAGGUGGAUGUGGCUAGACUGCC [G5A A26G C31A] | 0.02
GGCAAAGCUAAACGCAGCCUGGCAAAGUGGCUGUGGCUAGACUGCC [G5A C10A A14G G19C] | 0.02
GGCAAAGGUCAACACAUCGUCGCAAAGUGGCUGUGGCUAGACUGCA [G5A C8G G17U G21C C46A] | 0.03
GGCAAAGGUCAACACAGCUUGGCAAACUGGCUGUGGCUAGUCUGCA [G5A C8G G19U G27C A41U C46A] | 0.03
GGCAAAGGUCAACACAUCUUGGCAAAGUGGCUGUGGCUACAUUGCC [G5A C8G G17U G19U G40C C42U] | 0.02
GGCAAAGAUCUACACAGCGUGGCAAAGUGGCUGUGGCUAGACUCCC [G5A C8A A11U G44C] | 0.03

Variant | self-cleavage
GGCAAAGCUCAACACAGCGUGGCAUAGUGGCUGUGCCUAGACUGCC [G5A A25U G36C] | 0.02
GGCAAAGCUCAACACGGCGUGGCAAAGUGGCUGUGGCUAGUCUGCC [G5A A16G A41U] | 0.03
GGCAAAGCUCAACUCAGCAUGGCAAAGUGGCUGUGCCUAGACUGCC [G5A A14U G19A G36C] | 0.03
GGCAAAGGUCAACACAGCGUGGCAAAGUUGGUGUGGCUAGUCUGCC [G5A C8G G29U C31G A41U] | 0.04
GGCAAAGCUAAACAAAGCGUGGCAAAGUGGCUGUGGCUAGUCUGCC [G5A C10A C15A A41U] | 0.05
GGCAAAGCUCAACACUCCGUGGCAAAGUGGCUGUGGCUAAACUGCC [G5A A16U G17C G40A] | 0.02
GGCAAAGCUCAACACUGCGUGGCAAAGUGGCUGUGGCGAGACUACC [G5A A16U U38G G44A] | 0.03
GGCAAAGCUCAACACAGCGUGGCUAAGUGGCUGUGACUAGACUGCC [G5A A24U G36A] | 0.15
GGCAAAGCUCAACACUGCGUGGUAAAGUGGCUAUGGCUAGACUGCC [G5A A16U C23U G33A] | 0.04
GGCAAAGAUCAACACAGCGUGGCAAAGUGUCUGUGGCUAGACUGCC [G5A C8A G30U] | 0.34
GGCAAAGCUCAACACAGCGUGGCAAAGUGGCUGUGGCUCGACUGUC [G5A A39C C45U] | 0.07
GGCAAAGGUCAACACAGCGGGGCAAAGUGGCUGUGGCUAGACUGCC [G5A C8G U20G] | 0
GGCAAAGCUCAACACAGCGUGGCGAAGUGGCUGUGGGUAGACUGCC [G5A A24G C37G] | 0.02
GGCAAAGCUCAACACAGCGUGGCGAAGUGUCUGUGGCUAGACUGCC [G5A A24G G30U] | 0.08
GGCAAAGAUCAACACAGCGCGGCAAAGUGGCUGUGGCUAGACUGCC [G5A C8A U20C] | 0.2
GGCAAAGCUCAACACAGCGUGGCAAGGUGGCUGUGGCUAGACUUCC [G5A A26G G44U] | 0.13
GGCAAAGCUCAACACAGCGUGGCACAGUGGCUGUGAUUAGACUGCC [G5A A25C G36A C37U] | 0.27
GGCAAAGCUCAACCCAGCGUGGCAAAGUAGUUGUGCCUAGACUGCC [G5A A14C G29A C31U G36C] | 0.07
